The chains are these.
B1: chr1:55067125:55067226:-|3pUTR|ENSG00000162402|msi1|total|mutant (ssRNA)
RNA: GGGAGUUCUACAGUCCGACGAUCUAUCAUCGCUGGCGACUGCACUCUCAGGAGCCCAAAAUCAGGAGUGAAAUUGCCACUUCCCGUCCCCUUAUUUCCUAUGGAAACAACGCCUUCCGCACCCCCCGCACCUGCCGUCCUCACCAACAGAGGAUUGAGCAUCA
B2: chr12:122133860:122133961:+|CDS|ENSG00000175727|msi1|FALSE|unique (ssRNA)
RNA: GGGAGUUCUACAGUCCGACGAUCUUUUGUGCACCCCAAACCUGUAUCCUUGACUGGGGGCAGGCCUAAGCAGCCCCACAAAAUAGUGCCUGCUCCCAAACCAGAGCCCGUGUCCUUGGUGUUGAAGAAUGCCCGUAUCGCCCCCAACAGAGGAUUGAGCAUCA
B3: chr20:58910839:58911044:+|3pUTR|ENSG00000087460|msi1_unk|FALSE|overlapping (ssRNA)
RNA: GGGAGUUCUACAGUCCGACGAUCCCUUAAGCACAAUUAAUUAAAAGUGAAACGUAAUUGUACAAGCAGUUAAUCACCCACCAUAGGGCAUGAUUAACAAAGCAACCUUUCCCUUCCCCCGAGUGAUUUUGCGAAACCCCCUUUCAACAGAGGAUUGAGCAUCA
B4: ENSG00000070961:be:win_1601|CDS|ENSG00000070961|bound_else_gene|NA|bound_elsewhere_windowed (ssRNA)
RNA: GGGAGUUCUACAGUCCGACGAUCAGGGUGGAUUACCUCGUCACGUUGGUAAUAAAACUGAAUGUGCCUUGUUGGGACUUCUUUUGGAUUUAAAACGGGAUUAUCAGGAUGUUAGAAAUGAAAUACCAGAAGAAGCACUGUACACAACAGAGGAUUGAGCAUCA
B5: ENSG00000103404:stop:overlap|stop_codon|ENSG00000103404|stop_codon|NA|stop_codon (ssRNA)
RNA: GGGAGUUCUACAGUCCGACGAUCUCUGCCCAAGAGCAAAUAAACGAACAUUCUUCCUCCUUUUCCUGAGUUGGGUCGUCCAGUAGGUAGCUGACUGAUUGGGGAGUGGUAUGUGCAGAUGGCAUUGUCUGGUCAACUGAGGAUCAACAGAGGAUUGAGCAUCA
B6: ENSG00000083857:stop:overlap|stop_codon|ENSG00000083857|stop_codon|NA|stop_codon (ssRNA)
RNA: GGGAGUUCUACAGUCCGACGAUCCACUUCCAUAUUCCAUUUUAUUUGUGGUACAUACAUUUCUCAGCCAUUUGGAAUUGUCAUAGAUACUGGCGUAAGGACAUGCUGUAUGGCUGAUUGGGCCUCUGGUAUCACUGGGAUACACAACAGAGGAUUGAGCAUCA
B7: chr16:68260521:68260622:+|3pUTR|ENSG00000103066|msi1|FALSE|unique (ssRNA)
RNA: GGGAGUUCUACAGUCCGACGAUCUCGCAGCUUCCCUGAGCUGCACCUCUUGCUAACCCCACCAUCACACUGCCACCCUGCCCUAGGGUCUCACUAGUACCAAGUGGGUCAGCACAGGGCUGAGGAUGGGGCUCCUAUCCACCCCAACAGAGGAUUGAGCAUCA
B8: chr13:51761002:51761103:+|3pUTR|ENSG00000139668|unk|total|mutant (ssRNA)
RNA: GGGAGUUCUACAGUCCGACGAUCACGGCAAGAUUGUAAUCCUGCUGUAUUCCUCGCCCUCUGUAUUCUAUCCCUUUAAAAACCCGAUAUUUAAACAUUUUAUCCUAAUGUGUUUCAUCAGAACACUUUGCACACUUUCUUACUCAACAGAGGAUUGAGCAUCA
B9: chr1:113685846:113685948:+|3pUTR|ENSG00000081026|unk|total|mutant (ssRNA)
RNA: GGGAGUUCUACAGUCCGACGAUCUAUAUACACUUGAGGUUCUGAUCCGAGAAAGAUCUGUAAAUUGCUCAUUAUUUUUUAUACCGAUAUUUAAAAAAAACAGUUUAUGGCCUGCAUUUCUUUUACUGUCACAUUGGUUUAAUGCAACAGAGGAUUGAGCAUCA
B10: ENSG00000136451:be:win_3301|3pUTR|ENSG00000136451|bound_else_gene|NA|bound_elsewhere_windowed (ssRNA)
RNA: GGGAGUUCUACAGUCCGACGAUCAUUGUACAACUUUUGUAUAUAUAAAAGCUUAGGAACUUUCUGUUUAGCAGGAAGGCAACACAUUCCUACACUUUUAAUGUAUAUGUUUGUUAUAAUGUCCAUGUAAACAUGCCCUAUGUUCAACAGAGGAUUGAGCAUCA
B11: chr1:55067125:55067226:-|3pUTR|ENSG00000162402|msi1|FALSE|unique (ssRNA)
RNA: B1 RNA with C83U, C84A, C125U, C126A
B12: chr3:15254852:15254953:-|3pUTR|ENSG00000131370|msi1|FALSE|unique (ssRNA)
RNA: GGGAGUUCUACAGUCCGACGAUCAAACUGUUAAUUCUGUCACAGCCUGUAUAUUUUAGUCAUUUGUAAAUCUCUUCAUACAAUAGUGACUUCUUUUUUGACUGAUACAGUAUCUUAAUUACAAGGUUAUUUUGUACUUGUCUUCAACAGAGGAUUGAGCAUCA
B13: chr16:61647241:61654101:-|three_prime_utr|ENSG00000150394|control|control|control (ssRNA)
RNA: GGGAGUUCUACAGUCCGACGAUCAAAGAAACUUGACAGUGGAUUAUAAAUAAAUCACUGGAACUGAGCAUUCUGUAAUAUUCUAGGGUCACUCCCCUUAGAUACAACCAAUGUGGCUAUUUGUUUUAGAGGCAAGUUUAGCACCAACAGAGGAUUGAGCAUCA
B14: chr20:59938049:59938150:-|3pUTR|ENSG00000132825|unk|total|mutant (ssRNA)
RNA: GGGAGUUCUACAGUCCGACGAUCAAGUUUGAAACUAAGCAUUUUAAGAAGUCUUGCCUCAGUUAUUUCAGUUUUCAGGUGACCCGAGAAUUUCAGGCAACAGUGCCCUUUGCAAUUACCUUUUUGAUGAUUAAGGUGACUAUUCAACAGAGGAUUGAGCAUCA
B15: ENSG00000198589:be:win_8901|3pUTR|ENSG00000198589|bound_else_gene|NA|bound_elsewhere_windowed (ssRNA)
RNA: GGGAGUUCUACAGUCCGACGAUCUGAGAAAUAGGAUUUUCACAGUGGGGAAGUGGGUUACAAUAUUGGAAUAGGAAAAUUUGAUGCUGUAAUUUGGGUCCUGUAUUUUUCCAAACAACUGUGCUUCUUCAGCACUAAUAUUUCCAACAGAGGAUUGAGCAUCA
B16: chr6:111694403:111694505:-|CDS|ENSG00000010810|unk|total|mutant (ssRNA)
RNA: GGGAGUUCUACAGUCCGACGAUCAAUGGCUUACAUCGAGCGCAUGAAUUAUAUCCACCGAGAUCUGCGAUCAGCAAACAUUCCCGUGGGGAAUGGACUCAUAUGCAAGAUUGCUGACUUCGGAUUGGCCCGAUUGACCGAAGACAACAGAGGAUUGAGCAUCA
B17: chr11:43494716:43494817:+|3pUTR|ENSG00000052841|unk|FALSE|unique (ssRNA)
RNA: GGGAGUUCUACAGUCCGACGAUCGUUACCCAUCUUGGAAUAAGUUGUGAAUGUCAGCUCCCUCUCUCUGAGGCCUCCAGACUUAGCUCCUCAGGAGGGUAAUGAGCCAAGGUUGAGUGUUUCCAUACAAUGCUUUUACCUUUGCAACAGAGGAUUGAGCAUCA
B18: chr19:3536616:3536717:+|3pUTR|ENSG00000105325|msi1|FALSE|unique (ssRNA)
RNA: GGGAGUUCUACAGUCCGACGAUCACCGCCGCAGGGCCAGGCGGACGGCGUGAGGUUUGUGUUGGGGCUGGUUCUGCCCAUGCUAGGGGGUGGGGGAGCUCCCAGGACAGACCAGCCUUGUUUCUCAUGUAAUGCAGUGACGCUCAACAGAGGAUUGAGCAUCA
B19: chr22:36489384:36489485:-|3pUTR|ENSG00000100350|msi1|FALSE|unique (ssRNA)
RNA: GGGAGUUCUACAGUCCGACGAUCGUGUCACUUGCCACACACUGCCUCAACCUCCCCGCCCCAUUUUCAGCAGGGUUUGGGCUUAGCUACAGAGCCCAAGAGGGUCAGCCCUGCUUAUCAUCAUAGGCCCAGCAGGCUGAUCUCCAACAGAGGAUUGAGCAUCA
B20: chr5:56893553:56893673:+|CDS|ENSG00000095015|unk|FALSE|unique (ssRNA)
RNA: GGGAGUUCUACAGUCCGACGAUCUGCUCCAUCGAUCCCUUCACAUUUGUCUCCUGGUUUACGAGAUGUGGCUCUUCGUUGUUUAGAACUUCAACCUCAGGACAGACCUCCAUCAAGAGAGCUACUGAAGCAUCCAGUCUUUCGCAACAGAGGAUUGAGCAUCA
B21: chr9:128108756:128108857:+|3pUTR|ENSG00000148339|msi1|FALSE|unique (ssRNA)
RNA: GGGAGUUCUACAGUCCGACGAUCAAGGCAGCAGCCCUGGCUCCUUUCCUUUGGCAGGUUGGGGAAGGGCUUGCCCCCAGCCUUAGGAUUUCAGGGUUUGACUGGGGGCGUGGAGAGAGAGGGAGGAACCUCAAUAACCUUGAACAACAGAGGAUUGAGCAUCA
B22: chr12:74541195:74541296:+|3pUTR|ENSG00000253719|msi1|FALSE|bound_elsewhere (ssRNA)
RNA: GGGAGUUCUACAGUCCGACGAUCUGGGGGAAGGGGGGGGUUCUUUAAAAUUUCUGUGGUUUGUGGCUUUUUCUUCCAUACAUUAGUUCCCACCAUCGCAUGCCCAGGGACCACUGCCUGGCAUUAUCGCAUGCUGGGAUCAUCCAACAGAGGAUUGAGCAUCA

Positions count from the first letter of the chain named. Some of the results follow.

In the assay the target is T1, UNK ZnF1-6 (called full-length) (human, UniProt Q9C0B0 30-357).
T1 sequence: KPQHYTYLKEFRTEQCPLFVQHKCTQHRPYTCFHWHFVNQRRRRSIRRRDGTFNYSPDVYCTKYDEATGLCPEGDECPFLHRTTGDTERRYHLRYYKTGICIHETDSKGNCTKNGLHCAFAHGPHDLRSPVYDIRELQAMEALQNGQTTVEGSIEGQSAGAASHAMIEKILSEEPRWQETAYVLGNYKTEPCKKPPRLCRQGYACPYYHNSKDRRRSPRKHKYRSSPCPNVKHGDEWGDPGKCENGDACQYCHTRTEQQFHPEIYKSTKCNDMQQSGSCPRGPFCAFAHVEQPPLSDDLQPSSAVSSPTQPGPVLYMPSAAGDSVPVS
Put plainly: nsRBNS (natural sequence RNA bind-n-seq); RBNS binding buffer (assumed for nsRBNS): 25 mM Tris pH 7.5, 150 mM KCl, 3 mM MgCl2, 0.01% Triton X-100, 500 ug/ml BSA, 20 U/ml SUPERase-In, 4 C; UNK is unkempt and MSI1 is Musashi-1; names of the RNAs are library labels; protein concentration not given here; high values mean tight binding.
Take B1: the binding signal stood at 0.819 enrichment R.

As for B2, the binding signal was 0.506 enrichment R.

Take B3: the binding signal came to 0.504 enrichment R.

Molecule B4 displayed a binding signal of 0.486 enrichment R.

Molecule B5 had a binding signal of 0.787 enrichment R.

For B6, the binding signal worked out at 0.91 enrichment R.

For B7, the binding signal was 0.739 enrichment R.

Turning to B8, the binding signal stood at 0.835 enrichment R.

Molecule B9 came in with a binding signal of 0.88 enrichment R.

In the case of B10, the binding signal is 0.309 enrichment R.

B11 displayed a binding signal of 1.03 enrichment R.

The molecule B12 displayed a binding signal of 0.54 enrichment R.

In turn, B13 yielded a binding signal of 1.08 enrichment R.

As for B14, the binding signal was 1.02 enrichment R.

Take B15: the binding signal stood at 0.838 enrichment R.

B16: the binding signal came out at 0.354 enrichment R.

B17: the binding signal stood at 0.543 enrichment R.

Consider B18, for which the binding signal was found to be 0.944 enrichment R.

In the case of B19, the binding signal worked out at 0.851 enrichment R.

In turn, B20 gave a binding signal of 0.526 enrichment R.

In the case of B21, the binding signal is 0.973 enrichment R.

With B22, the binding signal is 1.24 enrichment R.

The record behind these values is PMC12136788.
